From patent publication US11178870B2 (priority 2017, dated 2021)

Experiments:
Magnaporthe grisea = type: in vivo; settings: class of control value, Table 7
Phytophthora infestans = type: in vivo; settings: class of control value, Table 7
[1] = system: Colletotrichum orbiculare; settings: 250 ppm spray, 2.5 ml/pot; investigated 6 to 10 days after inoculation

| Structure (SMILES) | Test A control value (blast on rice) (Magnaporthe grisea) | Test F control value (late blight on tomato) (Phytophthora infestans) | Test H control value (anthracnose on cucumber) [1] |
| --- | --- | --- | --- |
| Cc1cc(F)ccc1-c1c(-n2ncc(C)c2Cl)cc(Br)c(=O)n1C [Compound 514] | H (H shows the control value more than 50%) | L (L shows the control value of 50% or less) | H (H shows the control value more than 50%) |
| CNn1c(-c2c(F)cccc2F)c(-n2cc(F)cn2)cc(Br)c1=O [Compound 468] | H (H shows the control value more than 50%) | L (L shows the control value of 50% or less) | H (H shows the control value more than 50%) |
| Cc1cnn(-c2cc(Br)c(=O)n(N(C)C)c2-c2ccc(F)cc2F)c1Cl [Compound 470] | L (L shows the control value of 50% or less) | L (L shows the control value of 50% or less) | H (H shows the control value more than 50%) |
| Cc1ccsc1-c1ccc(=O)n(C)c1-c1c(F)cccc1F [Compound 496] | H (H shows the control value more than 50%) | L (L shows the control value of 50% or less) | L (L shows the control value of 50% or less) |
| Cc1cnn(-c2cc(Br)c(=O)n(N)c2-c2ccc(F)cc2Cl)c1Cl [Compound 477] | H (H shows the control value more than 50%) | L (L shows the control value of 50% or less) | L (L shows the control value of 50% or less) |
| CCn1c(-c2ccc(F)cc2F)c(-c2ccsc2Br)ccc1=O [Compound 500] | H (H shows the control value more than 50%) | L (L shows the control value of 50% or less) | L (L shows the control value of 50% or less) |
| CNn1c(-c2c(F)cccc2F)c(-n2ncc(C)c2Cl)cc(Br)c1=O [Compound 475] | H (H shows the control value more than 50%) | L (L shows the control value of 50% or less) | H (H shows the control value more than 50%) |
